Experimental data published in PubChem BioAssay (NCI).
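In this assay, cells in 96-well plates receive the compound at five concentrations for 48 hours. Endpoints are linearly interpolated between the surrounding concentrations. The concentration for 50% growth inhibition is given as GI50. TGI marks complete inhibition of growth.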

What follows are compounds tested on NCI-H322M lung (assay: NCI-60 cell line screen, 48 h).

Row | SMILES | GI50 [µM] | TGI [µM]
1 | N/C(=N\c1nc2ccccc2s1)NC(=O)Nc1ccc(Cl)cc1Cl | 1.24 | 4.23
2 | COc1ccc(NC(=O)Cn2c(/C=C/c3cccc(OC)c3)nc3ccccc3c2=O)cc1 | 5.82 | > 100
3 | COc1cc(C2CC(c3ccc(C(F)(F)F)cc3)=Nc3c(N)nc(N)nc3N2)ccc1Oc1nc(Nc2ccc(F)cc2)nc(N(C)C)n1 (stereo not drawn) | > 100 | > 100
4 | O=C(N/C(=C1/OCCN1Cc1ccccc1)[P+](c1ccccc1)(c1ccccc1)c1ccccc1)c1ccccc1 | 8.82 | 21.8
